This note sets out measurements from the supplement of paper PMC10126150.

Sequences with one replicate were seen in a single cluster, so their values are uncertain.

For the series, the system named is ATP. The experiment in a line: switch fluorescence ratio, 500 uM ATP over buffer (Cy3 cluster intensity, sum of 5 cycles each) (fold (ratio)); higher = stronger signal-on switching upon ATP binding; sequences stand for … in TCGTCGGCAGCGTCAGATGTGTATAAGAGACAGTTTTTTTTTTTTTTTTTTTTTTTTT…TC. The following applies: aptamer strand: ATP DNA aptamer (quencher-CACCTGGGGGAGTATTGCGGAGGAAGG + anchor), 100 nM annealed; ATP concentration: 500 uM; one replicate. Put shortly: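 Five buffer/ATP imaging cycles were run on Cy3-labelled switching-strand clusters on a modified Illumina MiSeq flow-cell, with NaOH stripping and re-annealing between cycles. In each cycle, clusters annealed to 100 nM quencher-labelled ATP aptamer were imaged in selection buffer, then after 15 min with 500 uM ATP at 22 °C. Per cluster, the fluorescence ratio is summed target-cycle over summed buffer-cycle Cy3 intensity, averaged per switch-domain sequence. Only clusters within 100-1000 RFU were kept.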
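Note: ATP exposure 15 min at 22 °C before imaging.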

As for TTTACTCGAC, the switch fluorescence ratio came out at 1.21.

Take ATGTATAGCT: the switch fluorescence ratio turned out to be 1.06.

For the sequence AGTGAGGGGG, the switch fluorescence ratio is 0.947.

For the sequence ACTGTCGCCC, the switch fluorescence ratio amounted to 1.01.

Turning to TCAAACAAGG, the switch fluorescence ratio came out at 1.03.

As to CCTTTTGAAT, the switch fluorescence ratio is 1.01.

For the sequence AATGTAAGGG, the switch fluorescence ratio was found to be 1.

For CAACAGCTTA, the switch fluorescence ratio stood at 1.07.

On to GTACAAGTGC, for which the switch fluorescence ratio stood at 0.986.

Take TTGATTGAGC: the switch fluorescence ratio stood at 0.984.

On to CTACAAGTAT, for which the switch fluorescence ratio is 0.97.

Take GTGTCGATGA: the switch fluorescence ratio is 1.01.

Consider AGTCGGCAGA, for which the switch fluorescence ratio was determined as 1.06.

For TGCTCTATGG, the switch fluorescence ratio was 0.952.

As for GCGCCTCTAC, the switch fluorescence ratio worked out at 2.11.

On to TTAAAGGCAA, for which the switch fluorescence ratio was 1.11.

With TTTCTGTTAT, the switch fluorescence ratio stood at 0.967.

Turning to ACGATGAATG, the switch fluorescence ratio amounted to 1.03.

Take TGGGTCTATT: the switch fluorescence ratio was 1.01.

For CCCGGTGTGC, the switch fluorescence ratio is 1.39.

On to TAAGGTAATG, for which the switch fluorescence ratio came to 1.01.

As to GATTAAGTCG, the switch fluorescence ratio worked out at 0.931.

For the sequence AGTCCATGTA, the switch fluorescence ratio amounted to 0.992.

With GGGTGGCATG, the switch fluorescence ratio came to 0.975.

Consider TTTGTATTTG, for which the switch fluorescence ratio was found to be 0.974.

For the sequence TATAGTAATT, the switch fluorescence ratio came out at 1.

As to TATCAGCAAT, the switch fluorescence ratio amounted to 2.73.

Turning to TTGAGTATTC, the switch fluorescence ratio was found to be 1.03.

Take CCCCACCCCG: the switch fluorescence ratio turned out to be 1.13.

ACTTCAACGG: the switch fluorescence ratio amounted to 1.23.

Turning to GAGACGTCTC, the switch fluorescence ratio came out at 0.956.

For the sequence GGTCACGTAG, the switch fluorescence ratio was determined as 0.968.

As to TGTGTGGC, the switch fluorescence ratio was found to be 1.03.

On to GTGGTACAA, for which the switch fluorescence ratio was 1.03.

Regarding CTCGTCATGT, the switch fluorescence ratio is 1.01.

CAAAGTAAGG: the switch fluorescence ratio was 1.04.

For the sequence CGGCGGGAG, the switch fluorescence ratio was 1.01.

With TAAAGTTTTC, the switch fluorescence ratio worked out at 0.97.

On to TAAAAGGTTC, for which the switch fluorescence ratio is 1.

In the case of AGATGGCTAT, the switch fluorescence ratio was 1.

For CTGATCCTAT, the switch fluorescence ratio is 1.

Turning to GGTAAAGCGC, the switch fluorescence ratio stood at 0.961.

As for CAGAGTGCGT, the switch fluorescence ratio is 1.

Regarding GTTCATGTCG, the switch fluorescence ratio came out at 1.04.

ACATGTTGA: the switch fluorescence ratio was found to be 0.934.

AATCATTAGG: the switch fluorescence ratio is 1.01.

Take AAAGTGTGCA: the switch fluorescence ratio amounted to 0.937.

For the sequence GCCGCTTTGT, the switch fluorescence ratio came out at 1.

As for TCCGCTTATT, the switch fluorescence ratio stood at 2.27.

For TATTGGCCGG, the switch fluorescence ratio worked out at 1.01.

AGGCTTCGCT: the switch fluorescence ratio worked out at 1.

Take TCCGGCGGGT: the switch fluorescence ratio stood at 1.07.

On to AGAGTCAACA, for which the switch fluorescence ratio was found to be 1.04.

Consider CCTTTTCACT, for which the switch fluorescence ratio is 1.03.

Turning to GGGTTCGAGC, the switch fluorescence ratio turned out to be 0.999.

In the case of GCCGTAATAA, the switch fluorescence ratio came to 3.51.

Turning to CCCCCGGATG, the switch fluorescence ratio was found to be 3.76.

CTAGTCTTGG: the switch fluorescence ratio is 1.02.

AGTATTGAGA: the switch fluorescence ratio was determined as 0.979.

As to AAGCAGATGT, the switch fluorescence ratio was 0.95.

On to GTCACCGTCG, for which the switch fluorescence ratio was determined as 1.01.

On to ATCGAAAGCC, for which the switch fluorescence ratio was 1.03.

For ATTGCTAGC, the switch fluorescence ratio worked out at 0.939.

Take ACGAGCTTC: the switch fluorescence ratio is 1.09.

Take GCCGTAATCC: the switch fluorescence ratio came to 1.49.

TGCTCCTTCG: the switch fluorescence ratio amounted to 1.37.

Regarding GGTGGCATTC, the switch fluorescence ratio came to 1.06.

As for GATCGAATGC, the switch fluorescence ratio is 1.13.

For the sequence ACACGTATCG, the switch fluorescence ratio amounted to 1.09.

On to TGTGCATGGT, for which the switch fluorescence ratio came out at 0.984.

Take GGGCTTATGT: the switch fluorescence ratio turned out to be 0.964.

For the sequence TTAGACCCG, the switch fluorescence ratio turned out to be 1.06.

As to TTATGTCCAT, the switch fluorescence ratio came to 1.02.

Regarding AGGAGAACAG, the switch fluorescence ratio came out at 1.

TTGCCGCTTT: the switch fluorescence ratio was determined as 1.01.

On to AGATATTCGT, for which the switch fluorescence ratio came out at 1.

As for AAAGTGCCGG, the switch fluorescence ratio was 1.06.

Turning to AGGTGCGATT, the switch fluorescence ratio was found to be 1.01.

As for AGATGTCTGA, the switch fluorescence ratio was determined as 0.951.

On to TTCGCAGCGA, for which the switch fluorescence ratio came to 2.14.

For the sequence TTACGTATCT, the switch fluorescence ratio amounted to 1.22.

With AAAAGAGCAG, the switch fluorescence ratio came out at 1.02.

With ATCACATTTC, the switch fluorescence ratio was found to be 0.976.

With CTTCCCGACT, the switch fluorescence ratio came to 1.24.

GTGTATAGCC: the switch fluorescence ratio was determined as 0.988.

Take TATGAGTTTC: the switch fluorescence ratio stood at 1.01.

CGAGCATGGT: the switch fluorescence ratio stood at 1.19.

For the sequence TTTGCACCTT, the switch fluorescence ratio was 1.09.

Regarding GGTGTAGTGA, the switch fluorescence ratio was found to be 1.04.

In the case of TTTCGTGGGC, the switch fluorescence ratio amounted to 1.35.

As to CTGAATGTTC, the switch fluorescence ratio amounted to 0.996.

In the case of AAGGATCACG, the switch fluorescence ratio is 1.05.

Take TTGTGCACAT: the switch fluorescence ratio was determined as 0.988.

GACTTTTAAA: the switch fluorescence ratio amounted to 1.04.

Turning to AAGCAAAACG, the switch fluorescence ratio is 1.06.

As to AGACTGAAGG, the switch fluorescence ratio turned out to be 0.993.

For TTGCCCTGTA, the switch fluorescence ratio stood at 1.08.

With TATGGTATTA, the switch fluorescence ratio turned out to be 0.955.

On to CTACCGCTGA, for which the switch fluorescence ratio turned out to be 3.06.

For GACAGAATTG, the switch fluorescence ratio is 1.03.

Take CGGTGTCGG: the switch fluorescence ratio stood at 1.

As for GGGCGCATCA, the switch fluorescence ratio was 0.945.

With ATATCTACAG, the switch fluorescence ratio was found to be 0.992.

Turning to CCGAGGGACT, the switch fluorescence ratio worked out at 1.67.

Regarding GAGTATTTGT, the switch fluorescence ratio worked out at 0.998.

With GATGTCTTAG, the switch fluorescence ratio worked out at 0.99.

GGTCACTCTA: the switch fluorescence ratio turned out to be 1.07.

Take GGATCGGCCT: the switch fluorescence ratio is 1.01.

Take ATTTTGGAG: the switch fluorescence ratio worked out at 1.02.

Turning to TGTTGTTAAC, the switch fluorescence ratio was 0.993.

On to GTCACAGTGC, for which the switch fluorescence ratio stood at 0.988.

For GACCAGGTTT, the switch fluorescence ratio was found to be 1.12.

For the sequence TTGCACTCGT, the switch fluorescence ratio was determined as 1.02.

With ACAAGTCAAC, the switch fluorescence ratio is 1.07.

For GGACTGGACA, the switch fluorescence ratio worked out at 1.

In the case of TAGCTGGAGC, the switch fluorescence ratio was 1.1.

In the case of TTGCGTGTTT, the switch fluorescence ratio is 0.99.

Consider CGTTTGTAGG, for which the switch fluorescence ratio was 0.973.

Consider TTGTACTCGG, for which the switch fluorescence ratio worked out at 0.986.

Consider CAATGTACCC, for which the switch fluorescence ratio is 1.13.
